Test results published in the supplement of paper PMC3334620.
In all, about 33,000 sequences were measured (“E-score (-0.5 to 0.5)”: median about -0.043, highest 2% from about 0.37 on). This is one part of the list.

Biological target: T1, Upc2 (UniProt Q12151)
T1 sequence: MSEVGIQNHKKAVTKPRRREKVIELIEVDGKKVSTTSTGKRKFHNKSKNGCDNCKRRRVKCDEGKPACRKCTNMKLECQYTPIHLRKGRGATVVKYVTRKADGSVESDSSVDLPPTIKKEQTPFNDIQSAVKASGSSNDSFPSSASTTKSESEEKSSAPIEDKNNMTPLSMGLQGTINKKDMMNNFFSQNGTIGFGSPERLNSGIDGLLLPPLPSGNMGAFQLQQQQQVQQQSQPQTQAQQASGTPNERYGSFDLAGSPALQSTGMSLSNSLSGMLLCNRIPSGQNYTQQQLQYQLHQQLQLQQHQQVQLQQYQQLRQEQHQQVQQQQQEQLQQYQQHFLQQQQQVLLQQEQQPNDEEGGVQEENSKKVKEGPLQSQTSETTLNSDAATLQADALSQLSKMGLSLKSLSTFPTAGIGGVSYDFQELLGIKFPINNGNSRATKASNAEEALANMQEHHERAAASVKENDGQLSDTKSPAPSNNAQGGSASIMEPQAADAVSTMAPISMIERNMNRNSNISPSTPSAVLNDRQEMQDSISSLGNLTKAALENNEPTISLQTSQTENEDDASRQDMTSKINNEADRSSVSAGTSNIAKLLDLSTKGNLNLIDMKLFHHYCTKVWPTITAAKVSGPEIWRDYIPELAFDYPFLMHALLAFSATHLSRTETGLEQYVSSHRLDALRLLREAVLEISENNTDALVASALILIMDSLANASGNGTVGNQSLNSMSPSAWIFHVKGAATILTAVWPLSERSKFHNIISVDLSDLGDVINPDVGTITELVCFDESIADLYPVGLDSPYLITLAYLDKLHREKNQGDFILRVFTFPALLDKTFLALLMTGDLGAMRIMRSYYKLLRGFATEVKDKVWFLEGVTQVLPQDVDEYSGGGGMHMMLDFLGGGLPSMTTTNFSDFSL
Assay: PBM E-score (8-mer binding enrichment) (E-score (-0.5 to 0.5)); higher = stronger / more preferred TF binding; most listed sequences are background and not binding sites
Conditions: protein concentration: 200 nM; construct: GST-full length
Procedure, shortened: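 E-scores (a modified Wilcoxon-Mann-Whitney statistic) were assigned by the Universal PBM Analysis Suite to every ungapped eight-base word pooled with its reverse complement. The input came from universal all-10-mer Agilent arrays made double-stranded by primer extension and probed with GST-tagged yeast transcription factors at about 100-200 nM. Fluorescent anti-GST detected bound protein, and masliner normalised the scans.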

Sequence	PBM E-score
TCTCTCAA	-0.0834
GGAGCGTA	0.201
ACAAATAT	0.0565
AAACTAAC	0.179
ATTAGTCC	-0.066
AAGACACC	-0.00077
GATGCGCA	-0.172
GGCGGTAC	0.122
ATGTGTGG	-0.215
TCAGCGCA	-0.178
ACATATTA	0.0239
CTGGTAAG	-0.0253
AGGTTTGA	-0.118
AAGAGGAA	-0.13
ATGTATCA	0.0504
GAGTAATC	-0.108
AAAATGTT	0.0781
GTAAATCA	0.168
GCTGGACC	-0.0565
AGAATCAG	-0.0805
AGTGCTCC	-0.0323
AACCGATT	0.155

Sequence	PBM E-score
CGAACCAC	0.122
AAGTACGA	0.407
GGGACGGA	-0.259
CAGGCATA	-0.0275
GATAGCAC	-0.0286
CGGAACAG	0.0687
GAAGCCGC	-0.0707
TCCCACCA	-0.0746
GACTGCTC	-0.0984
GACCGTGC	-0.197
GTGAGCGA	0.179
AGGCTGAA	-0.282
CCGTCTCC	-0.0968
CAGGAGCG	0.00502
AAGGGTGA	-0.0338
ACTCGTAT	0.483
AGAGACCC	-0.223
CACACTAA	0.0735
ATTTAGCG	0.0823
ACCACAAC	0.0838
ACTGCATA	-0.148
CCGCCCAG	-0.0999

Sequence	PBM E-score
GACTGCTA	-0.202
CTGGGCTC	-0.0826
ACTTAACT	-0.0538
CAATGGAC	0.00441
CTCGGGCC	-0.148
CCCAGACC	-0.181
CGAGTCCA	-0.0394
GAGCGAAA	0.16
ACTGCAAC	-0.0949
GCCTAGCA	-0.21
CATCTAAA	0.0138
AAATGCCT	-0.138
GACATGTA	-0.0795
GGGGCAAA	-0.173
GCCGAAGA	0.139
CCGGTCAG	-0.179
ATCCGGTC	0.0273
GTCCATAA	-0.261
AATATCCT	-0.0643
ATTAGGTA	0.0734
GCGCCGCA	-0.12
GCGCATAA	0.0729

Sequence	PBM E-score
ATCTTACC	0.00572
GCATAGGA	-0.0298
ATCTCCCA	-0.0924
ACTAGGTG	-0.327
GAAGTGAA	-0.084
GTCCGCTA	0.0438
AGCGCCCA	-0.343
TGCCTAAA	-0.0221
CAACGCTG	-0.0985
AGCGTTTA	0.363
ACGTCTTA	0.227
AGAATCTG	0.069
GCTAAAAA	-0.149
CACGCATA	-0.0465
CAGAGTAC	-0.0144
CGCTGCCG	-0.0536
GACGGGCC	-0.0442
TAACTAAA	-0.00267
CCGCGGCC	0.0862
CGAGCTCA	0.273
